# Experimental data from PubChem BioAssay (Tox21).
# Several values for one entry are separate records, joined by “and”; a condition that tells them apart may be missing. Identical values can stand only once. The shares of active, inactive and inconclusive entries below differ from those in the screen. Potencies beside an inconclusive call are fits to weak or partial responses and may not hold up. More than one record can exist for a structure, and the calls need not agree. Activity calls are given as the source filed them. Calls follow the shape of the dose curve; as a rule, active = well fitted curve in the direction sought with a large enough effect in the repeat runs; inconclusive = weak or mixed curves; inactive = no such curve, though single readings can be large; an effect the other way counts as inactive or inconclusive.
# Key:
# [1] = A CellTox Green Cytotoxicity Assay to monitor cytotoxicity in HepG2 cells - 16 hour (AID 1224876); also: nearly all actives have a fitted effect of over 45% in size
# In short: (§1)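 HepG2 cells, 600/well, preincubated 5 h with CellTox Green dye, then exposed to Tox21 compounds in DMSO at 37 C for up to 40 h. Dead-cell DNA fluorescence read at the indicated time point.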
# [2] = qHTS RealTime-Glo MT Cell Viability Assay in HepG2 cells - 32 hour (AID 1224877); also: nearly all actives have a fitted effect of over 55% in size
# In short: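 Compound treatment began 5 h after plating HepG2 cells (600/well) with NanoLuc luciferase and prosubstrate. Plates stayed at 37 C for 40 h; luminescence was captured at six time points, 0 h through 40 h.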
# [3] = A CellTox Green Cytotoxicity Assay to monitor cytotoxicity in HepG2 cells - 32 hour (AID 1224883); also: nearly all actives have a fitted effect of over 50% in size
# In short: as §1
# [4] = A CellTox Green Cytotoxicity Assay to monitor cytotoxicity in HepG2 cells - 24 hour (AID 1224878); also: nearly all actives have a fitted effect of over 45% in size
# In short: as §1
# [5] = A CellTox Green Cytotoxicity Assay to monitor cytotoxicity in HepG2 cells - 40 hour (AID 1224879); also: nearly all actives have a fitted effect of over 40% in size
# In short: as §1
# [6] = A CellTox Green Cytotoxicity Assay to monitor cytotoxicity in HEK293 cells - 8 hour (AID 1224884); also: nearly all actives have a fitted effect of over 35% in size
# In short: (§2)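 HEK293 cells, 600/well, were preincubated 5 hours and then exposed to compounds at 37 C for up to 40 hours. A cell-impermeant cyanine dye staining dead-cell DNA was read by fluorescence at 0, 8, 16, 24, 32 and 40 h time points.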
# [7] = qHTS RealTime-Glo MT Cell Viability Assay in HEK293 cells - 0 hour (AID 1224880); also: nearly all actives have a fitted effect of over 45% in size
# In short: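 600 cells/well were plated with the nonlytic NanoLuc/prosubstrate reagent, pre-incubated 5 h, then given 23 nL of compound in DMSO. Incubation at 37 C for 40 h, with luminescence from viable-cell-reduced substrate read repeatedly from 0 h.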
# [8] = A CellTox Green Cytotoxicity Assay to monitor cytotoxicity in HEK293 cells - 32 hour (AID 1224881); also: nearly all actives have a fitted effect of over 40% in size
# In short: as §2
# [9] = A CellTox Green Cytotoxicity Assay to monitor cytotoxicity in HepG2 cells - 0 hour (AID 1224882); also: nearly all actives have a fitted effect of over 35% in size
# In short: as §1
# Potency is read from the fitted curve at half-maximal effect; tags tell the direction and shape of the fitted curve.
structure (smiles),measurement,setting,value
O=[N+]([O-])c1cc(C(F)(F)F)c(Cl)c([N+](=O)[O-])c1Cl,Potency,[1],active: 49 µM
same,Potency,[2],active: 21.9 µM
same,Potency,[3],active: 21.9 µM
CN(C)C(=S)SSC(=S)N(C)C,Potency,[1],"inconclusive: 60.8 µM [activator, single point] and inconclusive: 26.8 µM [activator, single point]"
same,Potency,[2],active: 54.2 µM and active: 245 nM and active: 169 nM
same,Potency,[4],"inconclusive: 171 µM [activator, partial curve, poor fit]"
same,Potency,[5],active: 216 nM and active: 275 nM and active: 134 nM
same,Potency,[6],"inconclusive: 54.2 µM [activator, single point]"
CC(C)(c1ccccc1)c1ccc(O)c(C(C)(C)c2ccccc2)c1,Potency,[1],active: 48.5 µM and active: 43.6 µM
same,Potency,[2],"inconclusive: 61.1 µM [cytotoxic, single point] and active: 49 µM"
same,Potency,[4],active: 48.5 µM and active: 43.6 µM
same,Potency,[6],"inconclusive: 49 µM [activator, partial curve, poor fit]"
Oc1ccc(-c2ccccc2)cc1,Potency,[1],"inconclusive: 54.9 µM [activator, single point]"
same,Potency,[4],active: 49 µM
CCCCCCCCCCCCCCn1cc[n+](C)c1,Potency,[1],active: 34.7 µM and active: 43.2 µM
same,Potency,[2],active: 21.9 µM and active: 38.5 µM
same,Potency,[7],"inconclusive: 17.2 µM [rising, full curve]"
same,Potency,[6],active: 55 µM and active: 54.4 µM
S=C(SSC(=S)N1CCCCC1)N1CCCCC1,Potency,[1],"inconclusive: 26.8 µM [activator, single point]"
same,Potency,[2],active: 0.213 µM
same,Potency,[4],"inconclusive: 26.8 µM [activator, partial curve, poor fit]"
same,Potency,[5],active: 0.169 µM
same,Potency,[8],active: 0.107 µM
CCOP(=O)(NC(C)C)Oc1ccc(SC)c(C)c1 (stereo not given),Potency,[1],"inconclusive: 54.9 µM [activator, single point]"
same,Potency,[4],"inconclusive: 7.76 µM [activator, full curve, poor fit]"
same,Potency,[5],"inconclusive: 7.76 µM [activator, full curve, poor fit]"
O=C(O)c1ccc(=O)[nH]c1,Potency,[1],inactive
CN1C[C@H](C(=O)N[C@]2(C)O[C@@]3(O)[C@@H]4CCCN4C(=O)[C@H](Cc4ccccc4)N3C2=O)C=C2c3cccc4[nH]cc(c34)C[C@H]21,Potency,[1],"inconclusive: 8.1 µM [activator, partial curve]"
same,Potency,[2],"inconclusive: 19.6 µM [cytotoxic, partial curve] and inconclusive: 16.2 µM [cytotoxic, partial curve]"
same,Potency,[5],"inconclusive: 18.1 µM [activator, partial curve, poor fit]"
same,Potency,[8],"inconclusive: 24.7 µM [activator, partial curve, poor fit]"
same,Potency,[9],"inconclusive: 20.4 µM [activator, partial curve, poor fit]"
same,Potency,[3],"inconclusive: 7.22 µM [activator, partial curve, poor fit]"
Oc1ccc(C(c2ccc(O)cc2)(C(F)(F)F)C(F)(F)F)cc1,Potency,[1],"inconclusive: 54.7 µM [activator, single point] and active: 54.9 µM"
same,Potency,[2],"inconclusive: 54.9 µM [cytotoxic, single point]"
same,Potency,[8],active: 43.4 µM
same,Potency,[3],active: 54.7 µM and active: 54.9 µM
same,Potency,[6],"inconclusive: 48.8 µM [activator, single point]"
CCC(C)c1ccc(O)cc1 (stereo not given),Potency,[1],"inconclusive: 62.2 µM [activator, partial curve, poor fit] and inconclusive: 43.6 µM [activator, single point]"
same,Potency,[4],"inconclusive: 62.2 µM [activator, single point]"
same,Potency,[5],"inconclusive: 55.4 µM [activator, single point] and active: 43.6 µM"
same,Potency,[7],"inconclusive: 61.6 µM [rising, single point]"
same,Potency,[8],"inconclusive: 55.4 µM [activator, single point] and active: 43.6 µM"
same,Potency,[3],"inconclusive: 55.4 µM [activator, single point] and active: 43.6 µM"
same,Potency,[6],"inconclusive: 49.4 µM [activator, single point] and inconclusive: 54.9 µM [activator, single point]"
